Molecules are shown by their SMILES.

A short description of the data set: Mouse protein unbound fraction. The class given is in vitro ADME. As to conditions: mean of mouse protein unbound fraction in the range of 1 μM to 50 μM.

For the molecule `C[C@@H]1CN2c3c(cc4c(N5C(=O)OC[C@@H]5C)noc4c3F)CC3(C(=O)NC(=O)NC3=O)[C@H]2[C@H](C)O1` [Example 5, (2R,4S,4aS)-11-Fluoro-2,4-dimethyl-8-[(4S)-4-methyl-2-oxo-1,3-oxazolidin-3-yl]-1,2,4,4a-tetrahydro-2′H,6H-spiro[1,4-oxazino[4,3-a][1,2]oxazolo[4,5-g]quinoline-5,5′-pyrimidine]-2′,4′,6′(1′H,3′H)-trione], the murine unbound fraction worked out at 22.1%. The fraction unbound – broadly, the share of the substance not bound to proteins or other matrix – (plasma, read-out: murine unbound fraction) came out at 0.221.

The values above are taken from patent publication US8889671B2, “Compounds and methods for treating bacterial infections” (AstraZeneca AB, priority 2013, dated 2014).
